Reference: PMC4336329 (PLoS ONE, 2015)
Hit rate of the full screen: of about 310,000 compounds, about 14,000 (4.5%) showed an effect of 50% or more. Effects have a minus sign here. The list shows a part of the results.

Each compound was assayed against human ether-à-go-go-related gene (hERG) potassium channel (human, UniProt Q12809) (assay: primary screen, population patch clamp on CHO cells stably expressing hERG).
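Note: peak tail current of the secondary pulse compared with the same well before compound.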

Sequence of human ether-à-go-go-related gene (hERG) potassium channel (Q12809 whole entry, looked up): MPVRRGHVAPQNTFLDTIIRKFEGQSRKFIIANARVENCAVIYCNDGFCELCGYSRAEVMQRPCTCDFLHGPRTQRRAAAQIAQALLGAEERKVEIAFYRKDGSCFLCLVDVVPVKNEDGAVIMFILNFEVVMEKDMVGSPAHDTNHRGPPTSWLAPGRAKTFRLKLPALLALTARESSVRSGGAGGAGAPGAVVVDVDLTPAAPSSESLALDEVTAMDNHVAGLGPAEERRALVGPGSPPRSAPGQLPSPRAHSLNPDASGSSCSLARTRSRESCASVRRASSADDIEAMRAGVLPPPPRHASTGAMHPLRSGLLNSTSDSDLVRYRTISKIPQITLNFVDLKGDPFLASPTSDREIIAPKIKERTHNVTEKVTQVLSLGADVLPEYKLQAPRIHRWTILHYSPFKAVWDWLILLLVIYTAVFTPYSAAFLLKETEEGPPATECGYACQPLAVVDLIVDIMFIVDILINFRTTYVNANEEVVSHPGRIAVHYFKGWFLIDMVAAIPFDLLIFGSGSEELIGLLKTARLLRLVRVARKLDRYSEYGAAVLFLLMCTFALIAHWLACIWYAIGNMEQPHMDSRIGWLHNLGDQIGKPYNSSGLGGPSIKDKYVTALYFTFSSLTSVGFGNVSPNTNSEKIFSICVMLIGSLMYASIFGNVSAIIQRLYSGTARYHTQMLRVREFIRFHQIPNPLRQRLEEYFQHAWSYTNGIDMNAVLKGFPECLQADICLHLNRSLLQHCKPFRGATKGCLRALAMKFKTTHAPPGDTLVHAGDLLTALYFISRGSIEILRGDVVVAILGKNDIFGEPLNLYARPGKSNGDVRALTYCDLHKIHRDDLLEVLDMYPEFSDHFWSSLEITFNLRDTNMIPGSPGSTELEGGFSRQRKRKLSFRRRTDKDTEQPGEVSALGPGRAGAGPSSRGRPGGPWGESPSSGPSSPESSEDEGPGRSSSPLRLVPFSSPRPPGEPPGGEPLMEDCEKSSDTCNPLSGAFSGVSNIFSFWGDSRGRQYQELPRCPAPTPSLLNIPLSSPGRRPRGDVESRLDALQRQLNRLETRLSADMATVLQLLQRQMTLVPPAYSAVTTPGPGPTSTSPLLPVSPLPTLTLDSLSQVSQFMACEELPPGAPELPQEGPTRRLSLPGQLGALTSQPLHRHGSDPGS

Point of comparison: CN(CCO)C(=O)c1cccc2c1-c1ccccc1C2=O, “hERG current change (%, negative = inhibition) at 10uM” value 4.12%. Against it:
- CCOC(=O)C(=NC1CCS(=O)(=O)C1)NNc1ccc(Br)cc1 (stereo not drawn) — lower, -27.4%
- CCOC(=O)c1cc(-c2ccc(C)cc2)n(CCC(=O)NCCN(C)C)c1C — lower, -14.6%
- CCN(CC(=O)Nc1ccc(NC(C)=O)cc1)C(=O)c1cccnc1Sc1ccc(C)c(C)c1 — lower, 2.06%
- COc1cccc(N2C(=O)C3C(C2=O)C2C=CC3C23CC3)c1 (stereo not drawn) — lower, -13%
- Cc1c(NC(=O)CS(=O)(=O)c2ccccc2)c(=O)n(-c2ccccc2)n1C — higher, 4.21%
- Cc1ccc(S(=O)(=O)NC(=O)NC(C)(C)C)cc1 — lower, -21.3%
- O=C(NCCCn1ccnc1)c1cc(-c2ccncc2)nc2ccccc12 — lower, -56.3%
- COCC(=O)N1CCCC(C(=O)c2ccc(-c3ccccc3)cc2)C1 (stereo not drawn) — lower, -13.5%
- O=C(CSc1nc2sc3c(c2c(=O)[nH]1)CCCC3)NCCO — higher, 7.38%
- CC(C)(C)Cc1nnc(NC(=O)c2cc(-c3ccccc3)nc3ccccc23)s1 — higher, 11.7%
- COc1ccc(-c2cc3c(=O)n(CC(=O)Nc4ccc(Cl)cc4)nc(C)n3n2)cc1 — higher, 12.3%
- O=C(Nc1cc(Sc2ccccn2)cc([N+](=O)[O-])c1)c1ccc(Cl)cc1 — higher, 11.6%
- Cc1ccc(OCC(=O)N2CCN(C3CCC(c4ccccc4)CC3)CC2)cc1.O=C(O)C(=O)O (stereo not drawn) — lower, -62.8%
- O=C(COC(=O)/C=C/c1ccc(OC(F)F)cc1)NC(=O)NCc1ccccc1 — lower, 0.96%
- Cc1ccc(OCc2nnc(SCC(=O)NC3CCCCC3)n2C)cc1 — lower, -19.5%
- Cn1c(CNC(=O)c2cccs2)nnc1SCC(=O)Nc1ccc(Cl)cc1 — lower, -35.4%
- CC(C)CCOc1ccc(CO[C@@H]2[C@H]3OC(C)(C)O[C@H]3O[C@@H]2C(O)CO)cc1 (stereo partly drawn) — higher, 19.7%
- CCOC(=O)C1=C(CN2CCc3ccccc32)NC(=O)NC1c1cc(C)ccc1C (stereo not drawn) — lower, 0.809%
- C=CCSc1nc(=O)n2ccc(C)cc2n1 — lower, -22.9%
- COCCNc1nc2ccccc2n2cnnc12 — higher, 14.3%
- NC(=O)Cc1c[nH]c2cccc(O)c12 — lower, -0.942%
- COc1ccc(NC(=O)Cc2coc3cc(C)ccc23)cc1S(=O)(=O)N1CCOCC1 — lower, -21.4%
- CC(C)Sc1oc(-c2ccco2)nc1S(=O)(=O)c1ccccc1 — lower, -5.66%
- COc1cnc(-c2ccccn2)nc1N(C)c1ccccc1 — higher, 14.2%
- COC(=O)/C(=C\Nc1ccc(Cl)cc1Cl)NC(=O)c1ccc(OC)cc1 — higher, 5.27%
- Cc1ccc(C2NC(=S)NC3=C2C(=O)CC(C)(C)C3)cc1 (stereo not drawn) — lower, -1.44%
- COc1cc(C2C3C(C)N(C)C(=O)N(C)C3N(C)C(=O)N2C)ccc1O (stereo not drawn) — higher, 21.4%
- O=C(O)CCC(=O)NNC(=O)c1ccc(-c2ccccc2)cc1 — higher, 6.3%
- COc1ccc(C(CNC(=O)Cc2cc(OC)c(OC)c(OC)c2)N2CCCC2)cc1 (stereo not drawn) — lower, -6.97%
- CC(C)(C)NC(=O)NC(=O)COC(=O)CNC(=O)c1cccc(F)c1 — higher, 4.73%
- Cc1nnc(NC(=O)CSc2nnc(-c3ccco3)n2C(C)C)s1 — higher, 6.21%
- OCCN1CCN(CC(O)C(F)(F)F)CC1 (stereo not drawn) — higher, 4.71%
- O=C(CNCc1ccccc1)Nc1ccccc1-c1ccccc1 — lower, -27.1%
- CCC(=O)N1COC[C@@H]1Cc1ccccc1 — higher, 25.4%
- Cc1nc2ccccc2c(=O)n1N — lower, 3.04%
- CCN(CC)CCNC(=O)c1ccc(NC(=O)c2cccc(-n3cnnn3)c2)cc1 — lower, 3.02%
- Cc1c(NC(=S)N/N=C/C=C/c2ccc([N+](=O)[O-])cc2)c(=O)n(-c2ccccc2)n1C — lower, 1.47%
- S=C(Nc1ccccc1)NC1CCN(Cc2ccccc2)CC1 — lower, -39.6%
- CCOC(=O)c1ccccc1NC(=O)COC(=O)C1CC(=O)N(CCc2ccccc2)C1 (stereo not drawn) — lower, -75.6%
- COC(=O)c1cc(C(=O)OCC(=O)NC2CCCC2)cc([N+](=O)[O-])c1 — lower, -6.58%
- Cc1ccc(N(CC(=O)NCC(O)c2ccccc2)S(=O)(=O)c2ccc(C)cc2)cc1 (stereo not drawn) — lower, -65.9%
- COc1ccccc1C(=O)OCC(=O)NC1CCCC1 — higher, 10.6%
- CC1CCN(CCCNC(=O)C2CCC(CNS(=O)(=O)c3ccccc3)CC2)CC1 (stereo not drawn) — higher, 5.02%
- CCOc1ccc2nc(NC(=O)c3ccc(C)o3)sc2c1 — higher, 24.8%
- COc1ccc(OC)c(NC(=O)CCN2CCCC(C)C2)c1.Cl (stereo not drawn) — lower, -8.33%
- CC/C(Cc1ccccc1)=N/NC(=O)c1cccc(Br)c1 — lower, -1.72%
- O=C(CN1C(=O)NC2(CCCCC2)C1=O)NC1CCCc2ccccc21 (stereo not drawn) — lower, -16.9%
- CCNC(=S)N(CCc1c(C)[nH]c2ccc(C)cc12)Cc1cc(OC)c(OC)c(OC)c1 — lower, -7.73%
- CCOP(=O)(OCC)C(Nc1ccc(F)cc1)c1ccccc1 (stereo not drawn) — lower, -7.64%
- Brc1ccc(/C=N/N2CCN(C3c4ccccc4-c4ccccc43)CC2)s1 — higher, 11.9%
- Cc1cc(C)cc(N(CC(=O)NC(C)(C)C)C(=O)CNC(=O)c2cccs2)c1 — higher, 6.98%
- CC(C)(C)C(=O)CC1(O)C(=O)N(Cc2ccccc2)c2ccccc21 (stereo not drawn) — higher, 13.8%
- Cn1c(N2CCCC2)nc2c1c(=O)n(Cc1ccc(F)cc1)c(=O)n2C — lower, 0.592%
- NC(N)=NS(=O)(=O)c1ccc(NC(=S)NC(=O)/C=C/c2ccccc2)cc1 — higher, 7.3%
- O=C(O)CCc1ccc(-c2ccccc2)n1-c1cccc(O)c1 — lower, -11.8%
- Cn1c(=O)c(=O)n(C)c2cc(S(=O)(=O)CCC(=O)N3CCOCC3)ccc21 — higher, 5.29%
- O=C(COc1ccccc1)Nc1ccccc1NS(=O)(=O)c1cccs1 — lower, -21.9%
- CCO.CN1CC=C2C(C#N)=C(N)C(C#N)(C#N)[C@H](c3ccoc3)[C@H]2C1 — lower, -9.34%
- CCc1c(SCCC(=O)O)nc2ccccc2c1C — higher, 34.7%
- COC(=O)c1ccccc1C(=O)N1CCCC(C(=O)c2cc(F)ccc2F)C1 (stereo not drawn) — lower, 3.21%
- O=C(O)CN1C(=O)c2cccc3c(Br)ccc1c23 — higher, 20.6%
- CN1CCN(CCC(=O)N/N=C/c2cc([N+](=O)[O-])ccc2OC(F)F)CC1 — lower, 1.78%
- COc1ccccc1CCNC(=O)C(C)n1nc(C)c2c(C)n(-c3ccccc3)nc2c1=O (stereo not drawn) — lower, -12.3%
- CCSc1nc2sc3c(c2c(=O)n1-c1ccccc1)CCN(C(C)C)C3 — higher, 12.5%
- CC(C)COc1nc2ccccc2c(=O)n1OCC(=O)O — higher, 14%
- Cc1cc(C(C)(C)C)nc2[nH]n(-c3ccccc3)c(=O)c12 — lower, -7.94%
- CCC(C)NC(=O)[C@H]1N2C(=O)c3c(ccc(OC)c3OC)C2SC1(C)C (stereo partly drawn) — higher, 16.8%
- CCOC(=O)c1nnc(-c2ccccc2)nc1Oc1ccccc1Cl — higher, 22.5%
- Nn1c(SCC(=O)N2CCCC2=O)nnc1-c1cccs1 — lower, -2.91%
- O=C(c1ccccc1-c1nc(-c2ccccc2)no1)N1CCOCC1 — lower, -6.65%
- Cc1ccccc1NC(=O)OCc1cccnc1Sc1ccc(Cl)cc1 — higher, 6.4%
- CC1CCCCC1NC(=O)CN1C(=O)NC(C)(c2cc(F)ccc2F)C1=O (stereo not drawn) — higher, 8.64%
- Cc1cccc(Cl)c1OCCCN1CCOCC1.O=C(O)C(=O)O — lower, 0.808%
- CCOC(=O)CNC(=O)CSc1nc(Cc2cccs2)nc2ccccc12 — lower, -30%
- CCN(CC)C(=O)C1CCCN(C/C=C/c2ccccc2[N+](=O)[O-])C1 (stereo not drawn) — lower, -33%
- CC(=O)NCCC(=O)N(C)CC1CCN(CCc2cccc(C(F)(F)F)c2)CC1 — lower, 2.52%
- CS(=O)(=O)c1ccccc1C(=O)Nc1ccc(-c2nc3ccccc3[nH]2)cc1 — lower, -0.0903%
- Cc1ccc(N(C(=O)c2ccncc2)C2C=CS(=O)(=O)C2)cc1 (stereo not drawn) — lower, -4.29%
- Cc1ccc(-n2c(SCC(=O)N3Cc4ccccc4CC3C(=O)O)nnc2-c2cccnc2)c(C)c1 (stereo not drawn) — higher, 6.83%
- COc1ccc(CC(NC(C)=O)C(=O)NC2CCN(c3nc(C)cc(C)c3C#N)CC2)cc1 (stereo not drawn) — lower, -17.3%
- O=C(Oc1cccc(OC(=O)N2CCCCC2)c1)N1CCCCC1 — lower, -2.53%
- COc1ccc(-c2c(C#N)c(N)nc3sc(C(=O)c4ccc(C)cc4)c(N)c23)cc1 — higher, 16.7%
- O=C1C(=O)N(CCN2CCOCC2)C(c2cccc(Cl)c2)/C1=C(\O)c1ccc2c(c1)OCCO2 (stereo not drawn) — lower, -4.38%
- O=C(CN(C(=O)Cn1nnc(-c2cccs2)n1)c1cnc2ccccc2c1)NCC1CCCO1 (stereo not drawn) — lower, -23.8%
- CCC1Nc2ncnc(N3CCOCC3)c2N(Cc2ccc(C)cc2)C1=O.O=C(O)C(F)(F)F (stereo not drawn) — lower, -0.36%
- O=C(c1cccc(Oc2ccc([N+](=O)[O-])cc2Cl)c1)N1CCCCC1 — lower, -40.3%
